From paper PMC4336329 (PLoS ONE, 2015) come the findings set out here.

Hit rate of the full screen: of about 310,000 compounds, about 14,000 (4.5%) showed an effect of 50% or more. Effects have a minus sign here. The list shows a part of the results.
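Further: peak tail current of the secondary pulse compared with the same well before compound.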

Chain of human ether-à-go-go-related gene (hERG) potassium channel (Q12809 whole entry, looked up): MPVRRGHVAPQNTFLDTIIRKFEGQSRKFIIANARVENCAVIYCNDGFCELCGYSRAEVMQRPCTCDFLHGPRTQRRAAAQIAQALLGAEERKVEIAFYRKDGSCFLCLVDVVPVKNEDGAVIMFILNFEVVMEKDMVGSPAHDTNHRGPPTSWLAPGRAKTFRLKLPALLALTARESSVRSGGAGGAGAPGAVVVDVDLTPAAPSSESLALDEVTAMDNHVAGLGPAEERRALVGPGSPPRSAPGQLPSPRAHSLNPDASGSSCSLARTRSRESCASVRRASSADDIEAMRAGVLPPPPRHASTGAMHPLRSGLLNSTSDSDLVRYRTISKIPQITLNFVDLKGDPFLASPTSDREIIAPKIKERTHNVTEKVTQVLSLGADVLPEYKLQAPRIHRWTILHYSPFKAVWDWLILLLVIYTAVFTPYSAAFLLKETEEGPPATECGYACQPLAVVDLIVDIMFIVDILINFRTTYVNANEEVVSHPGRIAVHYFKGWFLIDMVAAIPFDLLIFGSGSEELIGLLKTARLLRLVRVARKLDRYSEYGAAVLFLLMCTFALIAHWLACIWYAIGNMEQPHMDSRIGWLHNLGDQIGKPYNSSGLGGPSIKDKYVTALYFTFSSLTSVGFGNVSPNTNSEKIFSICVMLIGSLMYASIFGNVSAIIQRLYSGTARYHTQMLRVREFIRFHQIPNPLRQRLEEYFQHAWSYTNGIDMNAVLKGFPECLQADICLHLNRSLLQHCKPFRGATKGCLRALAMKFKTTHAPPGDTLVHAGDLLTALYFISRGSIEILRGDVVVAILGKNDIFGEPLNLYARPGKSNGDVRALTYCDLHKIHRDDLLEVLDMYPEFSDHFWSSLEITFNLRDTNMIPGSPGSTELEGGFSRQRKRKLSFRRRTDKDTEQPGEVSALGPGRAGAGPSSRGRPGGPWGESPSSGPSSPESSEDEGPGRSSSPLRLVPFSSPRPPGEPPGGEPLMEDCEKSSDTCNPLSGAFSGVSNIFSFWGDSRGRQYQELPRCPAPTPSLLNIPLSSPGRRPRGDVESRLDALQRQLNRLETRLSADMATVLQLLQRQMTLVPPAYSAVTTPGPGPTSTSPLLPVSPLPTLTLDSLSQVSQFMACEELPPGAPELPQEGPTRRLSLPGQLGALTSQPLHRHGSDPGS

The assay addresses human ether-à-go-go-related gene (hERG) potassium channel (human, UniProt Q12809). Nature of the assay: primary screen, population patch clamp on CHO cells stably expressing hERG.
With `CS(=O)(=O)N1CCc2cc(NC(=O)c3ccc(Cl)cc3Cl)ccc21`, the “hERG current change (%, negative = inhibition) at 10uM” value is given as 1.5%.

Regarding `CN(CC(=O)Nc1cccc(F)c1)C(=O)c1ccccc1OCCOc1ccccc1`, the “hERG current change (%, negative = inhibition) at 10uM” value is listed as -30.9%. In the case of `COc1ccc(C(=O)OCn2nnc3ccccc3c2=O)cc1[N+](=O)[O-]`, the “hERG current change (%, negative = inhibition) at 10uM” value is listed as 13.6%. To `CCCCOc1ccc(NC2=NC3(CCCC3)N=C(N)N2)cc1` belongs 21.3%. To `Oc1ccc(N=Cc2c(O)ccc3ccccc23)cc1` belongs 13.9%; to `CCCCNC(=S)NC(=O)c1ccc(Cl)cc1Cl`, 22.7%; to `N#Cc1nc(-c2cccs2)oc1NCC1CCCO1` (stereo not shown), -10%. `COc1cc(OC)c(C2=NOC(C(=O)Nc3c(C)n(C)n(-c4ccccc4)c3=O)C2)cc1Cl` (stereo not shown): the “hERG current change (%, negative = inhibition) at 10uM” value came out at 12.8%.

Regarding `CSc1ccc(S(=O)(=O)Nc2ccc(N3CCOCC3)c(Cl)c2)cc1`, the “hERG current change (%, negative = inhibition) at 10uM” value is given as -7.48%. The result for `CSc1ccc(CCNC(=O)CN2C(=O)c3cccnc3Oc3ccc(C)cc32)cc1` reads -39.6%; that for `O=C(NC(=S)Nc1cccc([N+](=O)[O-])c1)c1ccccc1`, 13.4%. For `COc1cc(S(=O)(=O)Nc2ncccc2C)c(OC)cc1Cl`, the “hERG current change (%, negative = inhibition) at 10uM” value is on record as 2.23%. As to `O=C(NCCc1ccc(Cl)cc1)c1ccc(NC2=NC3CS(=O)(=O)CC3S2)cc1` (stereo not shown), the “hERG current change (%, negative = inhibition) at 10uM” value worked out at 23.8%. As for `COc1cccc(N2CCN(S(=O)(=O)c3ccc4c(c3)N(C(C)=O)CCO4)CC2)c1`, the “hERG current change (%, negative = inhibition) at 10uM” value is reported as -45.1%. `O/N=C1\CCCc2ccc(Cl)cc21`: the “hERG current change (%, negative = inhibition) at 10uM” value is -11.2%.

With `Nc1nonc1-c1noc(CCCOc2ccc(Cl)cc2Cl)n1`, the “hERG current change (%, negative = inhibition) at 10uM” value was -12.3%. The result for `COc1cc(C=C2C(=O)OC(C)(C)OC2=O)ccc1OCC(=O)Nc1ccccc1` reads 17.9%; that for `CCN(CC)CCN1C(=O)C(=O)/C(=C(/O)c2ccc(OC)c(OC)c2)C1c1ccccn1` (stereo not shown), 13.6%; that for `O=C(Nc1ncccn1)c1ccc(Cl)c([N+](=O)[O-])c1`, 14.1%.

`O=C(COC(=O)Cc1ccc(Br)cc1)NC1CCCCCC1`: the “hERG current change (%, negative = inhibition) at 10uM” value was -1.07%. For the compound `O=C1NC(c2ccccc2)=N/C1=C/c1ccco1`, the “hERG current change (%, negative = inhibition) at 10uM” value is given as -8.66%. On to `CC1=C(C(=O)OCc2ccccc2)C(c2cccnc2)c2c(n(C)c(=O)n(C)c2=O)N1` (stereo not shown), for which the “hERG current change (%, negative = inhibition) at 10uM” value is -32.5%. The result for `COc1ccc(NC(=O)c2ccc3c(c2)S(=O)(=O)c2ccccc2C3=O)cc1` reads 7.94%; that for `COc1ccc(CCN2C(=O)c3cccnc3C2=O)cc1OC`, -14.5%; that for `COc1ccccc1C(CNc1ncnc2sc(C)c(C)c12)N(C)C` (stereo not shown), -55.4%. To `O=C(Nc1ccc(-c2n[nH]c(=S)o2)cc1)c1ccccc1Cl` belongs 21.1%; to `CCCN(CC1CCCO1)C(=O)c1cc(COc2ccc(F)cc2F)on1` (stereo not shown), -15%. Take `CCOC(=O)c1ccccc1NC(=O)COC(=O)CCC(=O)N1CCOCC1`: the “hERG current change (%, negative = inhibition) at 10uM” value amounted to 0.246%.

Regarding `COc1ccc(S(=O)(=O)N2CCN(Cc3cccc(OC)c3)CC2)cc1`, the “hERG current change (%, negative = inhibition) at 10uM” value is -28.6%. Take `O=C(NCc1ccccn1)c1n[nH]c(=O)c2ccccc12`: the “hERG current change (%, negative = inhibition) at 10uM” value was 10.6%. The result for `CC1(C)NC(=O)N(CC(=O)N2CCN(S(=O)(=O)c3ccccc3F)CC2)C1=O` reads -3.13%. To `COc1ccc(N(C(=O)c2cnccn2)C(C(=O)NCc2ccccc2)c2ccc(O)cc2)cc1` (stereo not shown) belongs 1.87%; to `Br.Cc1ccc(S(=O)(=O)CCSC(=N)N)cc1`, 13.1%; to `CCOC(=O)N1CCN(CCC(=O)Nc2cc([N+](=O)[O-])ccc2OC)CC1`, -49.9%. In the case of `O=C(CCC(=O)Nc1ccc(F)cc1)N/N=C/c1cccc(Br)c1`, the “hERG current change (%, negative = inhibition) at 10uM” value is given as -0.632%. For `CCN1C(=NCc2cc(OC)c(OC)c(OC)c2)N[C@@H](c2ccccc2)[C@H](C(=O)OC)[C@H]1C`, the “hERG current change (%, negative = inhibition) at 10uM” value came out at 8.16%. The result for `CC(C)(C)C(=O)CNS(=O)(=O)c1ccc(S(=O)(=O)NC2CC2)cc1` reads 12.3%; that for `COC(c1ccccc1)c1nnc(CCC(=O)NCc2cccc(-n3cccn3)c2)o1` (stereo not shown), -19.8%; that for `O=C(N/N=C1\C/C(=N\NC(=O)c2ccncc2)c2ccccc21)c1ccncc1`, 4.01%.

On to `CCOc1ccc(-n2c(C)nc3cc(C(=O)NCCCN4CCOCC4)ccc32)cc1`, for which the “hERG current change (%, negative = inhibition) at 10uM” value is recorded as -4.81%. The result for `CC(C)(C)NC(=O)C(OC(=O)c1cccs1)c1ccc(C#N)cc1` (stereo not shown) reads 5.04%. With `CC(C)N(Cc1nnc(-c2ccc(Cl)cc2)o1)C(=O)C1=COCCO1`, the “hERG current change (%, negative = inhibition) at 10uM” value was -19.9%. To `CCOc1ccc(NC(=O)CSc2nc(=O)n(Cc3cccnc3)c3c2CCC3)cc1` belongs -8.74%.
